Test results as given in the supplement of paper PMC3334620.
In all, about 33,000 sequences were measured (“E-score (-0.5 to 0.5)”: median about -0.054, highest 2% from about 0.35 on). The list shows a part of the results.

target: T1, Stb5 (UniProt P38699); test: PBM E-score (8-mer binding enrichment) (E-score (-0.5 to 0.5)); higher = stronger / more preferred TF binding; most listed sequences are background and not binding sites; conditions: protein concentration: 200 nM; construct: GST-full length
T1 sequence: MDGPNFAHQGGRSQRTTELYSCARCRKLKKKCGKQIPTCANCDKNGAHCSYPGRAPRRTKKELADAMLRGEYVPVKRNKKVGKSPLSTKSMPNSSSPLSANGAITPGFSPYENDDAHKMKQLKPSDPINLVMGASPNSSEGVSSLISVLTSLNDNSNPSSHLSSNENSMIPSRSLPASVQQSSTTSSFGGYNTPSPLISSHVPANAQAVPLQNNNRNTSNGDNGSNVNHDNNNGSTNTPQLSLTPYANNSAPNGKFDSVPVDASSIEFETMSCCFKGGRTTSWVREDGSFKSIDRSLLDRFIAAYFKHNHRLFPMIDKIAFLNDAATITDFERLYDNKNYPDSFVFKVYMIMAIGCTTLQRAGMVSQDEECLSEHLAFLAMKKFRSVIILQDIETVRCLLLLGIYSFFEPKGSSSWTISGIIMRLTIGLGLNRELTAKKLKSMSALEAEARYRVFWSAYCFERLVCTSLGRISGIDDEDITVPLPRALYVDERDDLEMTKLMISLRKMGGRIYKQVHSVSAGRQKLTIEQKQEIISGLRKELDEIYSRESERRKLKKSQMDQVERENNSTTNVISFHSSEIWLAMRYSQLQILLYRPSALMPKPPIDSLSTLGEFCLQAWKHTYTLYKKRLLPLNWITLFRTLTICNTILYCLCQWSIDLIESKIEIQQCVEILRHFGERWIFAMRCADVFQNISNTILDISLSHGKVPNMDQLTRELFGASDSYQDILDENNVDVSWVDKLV
Summary of the method: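 Detection of bound protein used fluorescent anti-GST, with scans normalised by masliner. The proteins were GST-tagged yeast transcription factors applied at about 100-200 nM to universal all-10-mer Agilent arrays made double-stranded by primer extension. Each ungapped eight-base word, pooled with its reverse complement, was scored with an E-score from the Universal PBM Analysis Suite.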

Sequence	PBM E-score
AAGTTATA	0.0559
CTAGTTCA	-0.21
AGGGATAG	-0.0908
AGATCGGC	0.337
AGATGTAG	-0.0297
CTTTTTGC	-0.0672
AGTCACAC	-0.207
TACTGATA	-0.13
GCGCGTAA	-0.034
ATTTAGAC	0.0407
AAAGAACC	0.112
AAAGGCCT	-0.115
GCAGCGTA	-0.126
AACTTTCA	-0.0896
CTGACCGA	-0.0342
GCTCTCCA	-0.21
GCTGCTGA	-0.114
AGGTGCGA	0.0754
AGAAAGAA	-0.0975
CTGGAAGA	-0.142
ATTTTTCC	-0.0446
AACTGCGA	0.219
AACCCCAG	-0.154
AACCCCCG	0.401
TCATTCGA	-0.111

Sequence	PBM E-score
TAGATAGA	-0.0546
AAACCGGG	0.0888
CCAACGCC	0.0804
ATTGCAAC	0.00777
CAAGCTGG	-0.259
GCGGGAAC	0.225
GATGGTGA	-0.00517
CCCACCAC	-0.182
GACTGCGA	-0.0122
AACCTCCA	-0.208
CACGAACG	0.0355
CGCTGGAG	-0.0255
CTAACGTC	0.00376
GAGTGACA	-0.0475
GAGGACTA	-0.0604
ATCTACCA	-0.151
ACCGCCTG	0.25
ATGCCTAA	-0.163
AGTCTTGA	-0.213
AACTGGAC	-0.0509
ACTGGGGA	-0.161
ATACGCAA	-0.165
CGATTCAC	0.0199
AAGAAGCG	0.027
AGGACACG	0.0109

Sequence	PBM E-score
AATTATCA	0.127
AATAAGCA	-0.0559
GAACGAGC	-0.183
AGGGTCGC	-0.167
CCGGGCTC	0.166
ACGCCAAG	-0.28
GCTGGGCA	-0.226
TAGGCAGA	0.0374
AGCGTGAA	-0.178
AGGTCCTC	-0.0933
ATTTACGA	0.0377
GAGTGATC	-0.0228
ATCTGACC	0.118
AAGACCGC	0.443
ACCAACTA	-0.0283
TCCGGAGA	0.185
CATCATCG	-0.0164
CCACCTAG	-0.0958
CTGGATTA	0.0677
TCGCTGCA	-0.00396
TTACACAA	0.0604
CTGTAGAC	-0.0544
CGCGCGCG	0.213
ATACTCGA	-0.172
GAGCGCGA	-0.0254

Sequence	PBM E-score
CACGGAAG	0.104
ATGACTTA	-0.243
AACGTAGC	-0.195
GCTGCTCC	-0.145
CGCTGTAC	0.0659
ACCCTTCT	-0.247
TCCGCTAA	0.248
CGCCGTCA	0.33
ACATGGGC	-0.129
TCTCAAGA	-0.133
AAGAGTAC	-0.12
CCGCGCCC	0.268
GGCCCGGA	0.21
AATAGAGC	-0.0257
GTCTTGGA	-0.254
CGTATGGC	-0.145
GCTCCCGA	-0.0118
CGAGGTCA	-0.0286
CAAAATCA	-0.117
ATAGTACA	-0.13
CGGTGTAG	0.323
ACTTGCGC	0.105
CCATTCTC	-0.126
TAAATCTA	-0.0639
AGGGAAGG	-0.103

Sequence	PBM E-score
AGCTGCGC	-0.0182
AAGCATCA	-0.187
ACCACTTC	0.0599
AACGCAAT	-0.0265
ATGAACTA	-0.151
GATGGTGC	-0.0647
AGGTGCTA	0.0872
CCCAGCCA	-0.265
CCTCGGTA	0.223
ATGTCTAG	-0.119
ATACGTGA	-0.0516
CGCGTTAG	-0.0182
ACCTATGC	0.0175
ACGTCTTC	-0.132
CCCGACAG	0.305
ATTACGAA	0.0233
ACCCCAGC	-0.0864
ACGCAAAC	-0.206
TATTTTAA	0.0873
CCCATCAG	-0.157
CGGCATAG	0.0895
CCCGTTAG	0.235
AGGCCGGC	0.265
ATATGAAT	0.0646
AGCTGCAC	-0.163

Sequence	PBM E-score
GACTCCAC	-0.14
ACTACCCT	-0.276
ACCCTTAA	-0.0774
CTAAGAAA	-0.223
TCGGGCCA	0.0792
AACTCACA	-0.235
CCAACCAC	-0.12
ACTCTTTG	-0.24
GGGCGGGA	0.277
AGCGTTTG	-0.253
CGGAGTGC	0.198
ACAGGGGT	0.00253
AGCAGCAA	-0.174
CGAGTACA	-0.158
AGGATCGC	-0.0683
GCAGGCAC	-0.114
ACGACCGT	0.143
CCGTCCAA	0.269
ACCAACAC	-0.188
GAGTTCCA	-0.0932
AGCGTGCC	-0.0922
CTCAGTAC	-0.213
ACTGGCTA	-0.141
CGTTTCTC	0.0293
GCTGTCCC	-0.0545

Sequence	PBM E-score
CGCCCCAA	0.134
AGGAGTAG	-0.135
ACATCGAA	-0.0128
AGATAGGA	0.00142
AGGACCAA	-0.115
CATAAAAG	-0.00979
CCACCTAC	-0.0935
AACTCCAA	-0.174
CAACAAGA	-0.117
AGAAACAC	-0.0091
CCCGCTAC	0.216
ACTTACAT	-0.234
GACGTCAC	0.0593
AAAAGGAT	-0.147
ACCATAAC	-0.0145
CCTCTGTC	-0.0874
CACGTAAA	-0.152
CTGGTTAC	-0.167
ATCTTAAT	-0.135
GGCTCGGA	0.0311
TCGGCCCA	0.105
ATTTGGGG	-0.159
